From paper PMC10150365 (Journal of Medicinal Chemistry, 2023)
Converted amounts (≈) assume the structure as drawn. “And” between values parts separate entries of the source, which are not always exact repeats. Identical values can stand only once. Like-named read-outs stand apart in the source and are kept apart here.

Columns and labels:
[1] = assay type: in vitro ADME; details: male, CD1, mouse, microsomes, pH 7.4
[2] = in vitro; assay type: in vitro ADME; details: mouse, hepatocytes
[3] = molecular target: T1, Vasopressin V1A (Homo sapiens, UniProt P37288); assay: Cerep SafetyScreen-87; assay type: binding; details: n=2
T1 construct: purchased Eurofins Cerep/Panlabs SafetyScreen-87
T1 sequence (P37288 whole entry): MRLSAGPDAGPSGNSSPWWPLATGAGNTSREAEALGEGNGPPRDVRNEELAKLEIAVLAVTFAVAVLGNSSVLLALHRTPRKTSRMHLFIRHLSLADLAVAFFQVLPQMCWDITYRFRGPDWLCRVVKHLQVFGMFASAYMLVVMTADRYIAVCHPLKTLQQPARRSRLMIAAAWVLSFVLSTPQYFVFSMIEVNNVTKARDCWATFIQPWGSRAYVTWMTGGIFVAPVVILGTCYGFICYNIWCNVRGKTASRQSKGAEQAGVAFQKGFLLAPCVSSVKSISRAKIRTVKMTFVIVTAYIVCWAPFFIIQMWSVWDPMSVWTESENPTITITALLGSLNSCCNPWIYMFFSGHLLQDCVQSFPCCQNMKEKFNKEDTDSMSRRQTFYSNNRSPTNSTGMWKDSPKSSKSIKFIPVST

[4] = beagle dogs
[5] = athymic mice
[6] = system: SK-OV-3 human ovarian cancer xenografts; details: single 50 mg/kg po; estimated free tumor concentration
[7] = minipig
[8] = human
[9] = pH 1.6
[10] = from Cav(free) = 10 nM in mouse model, F assumed 0.4
[11] = in vivo; details: both, beagle, dog, plasma
[12] = in vivo; details: athymic, mouse, whole blood; for Tmax: po
[13] = in vivo; details: athymic, mouse, tumor, po, 50 mg/kg
[14] = physchem; details: pH 7.4
[15] = in vitro; details: rat, hepatocytes
[16] = in vitro; details: dog, hepatocytes
[17] = in vitro; details: human, hepatocytes
[18] = system: CYP1A2, 2A6, 2B6, 2C8, 2C9, 2C19, 2D6, 3A4; assay: in vitro; details: human, microsomes
[19] = physchem
[20] = Mouse blood PK (BALB/c); details: for AUC: po 5 mg/kg, t = 24 h
[21] = Rat blood PK (Sprague-Dawley); details: for AUC: t = 24 h
[22] = Plasma protein binding and blood-to-plasma ratio
[23] = Plasma protein binding and blood-to-plasma ratio; remark: listed apart in the source

CCN1CCN(Cc2ccc3cc(C(=O)Nc4cc(NC(=O)c5ccc6c(c5)OCCO6)ccc4F)ccc3n2)CC1 [Compound 22, N-(5-(2,3-Dihydrobenzo[b][1,4]dioxine-6-carboxamido)-2-fluorophenyl)-2-((4-ethylpiperazin-1-yl)methyl)quinoline-6-carboxamide]
Pred. in vivo CLu from MLM [1]: 58 mL/min/kg | hepatocyte CLint at 1 h, 1 µM [2]: 53 µL/min/1e6 cells | remaining at 0 h [2]: 144% | inhibition at 10 µM [3]: 20% | iv Cltb ([4]; iv 0.5 mg/kg): 21 mL/min/kg | Free Cav^0–24h ([4]; po (Table S12)): 1.9 nM | Tmax ([4]; po […]): 2.0 h | Vdu ([4]; Vss/fub): 16 L/kg | Free Cav^0–24h ([5]; 5 mg/kg iv): 2.1 nM | iv Cltb ([5]; 5 mg/kg iv, 90% CI): 21 (24–18) mL/min/kg | Free Cav^0–24h ([5]; 5 mg/kg po): 0.59 nM | Free Cav^0–24h ([5]; 17.5 mg/kg po): 3.1 nM | Free Cav^0–24h ([5]; 35 mg/kg po): 10 nM | Free Cav^0–24h ([5]; 50 mg/kg po): 24 nM | iv CLu ([5]; CLtb/fub): 3000 mL/min/kg | tumor-free Cmax [6]: 21 nM | Plasma, fup ([7]; 90% CI): 0.11 (0.32-0.037) | Blood, fub ([7]; fub = fup/B:P): 0.069 | Plasma, fup (beagle dog (male), 90% CI): 0.32 (0.40-0.25) | fub (beagle dog blood, fub = fup/B:P): 0.14 | Plasma, fup ([8]; 90% CI): 0.0037 (0.0052-0.0027) | Blood, fub ([8]; fub = fup/B:P): 0.0053 | Thermodynamic solubility FaSSGF [9]: 1600 µM | Predicted Human Dose [10]: less than 210 mg/person/day | Vd ([11]; iv, 0.5 mg/kg): 2.2 L/kg | bioavailability ([11]; po, […]): 9.1% | half-life at 24 h ([12]; iv, 5 mg/kg): 90 min | Tmax ([12]; 5 mg/kg): 1.7 h | Tmax ([12]; 17.5 mg/kg): 1.7 h | Tmax ([12]; 35 mg/kg): 2 h | Tmax ([12]; 50 mg/kg): 1.7 h | Tmax [13]: 6 h | chromatographic logD [14]: 1.7 | hepatocyte CLint [15]: 38 µL/min/1e6 cells | remaining at 0 h [15]: 126% | hepatocyte CLint [16]: 31 µL/min/1e6 cells | hepatocyte CLint [17]: 9 µL/min/1e6 cells | remaining at 0 h [17]: 139% | IC50 [18]: > 10 µM | solubility thermodynamic at 4 h ([19]; pH 6.5, Thermodynamic solubility FaSSIF (mean)): 27 µg/mL (≈ 47.4 µM) | solubility thermodynamic at 4 h ([19]; pH 6.5, Thermodynamic solubility FeSSIF (mean)): 34 µg/mL (≈ 59.7 µM) | iv Cltb ([20]; BALB/c mice, iv 5 mg/kg (18: 1 mg/kg), 90% CI): 10 mL/min/kg and 10 (10–9.7) mL/min/kg | Free Cav^0–24h ([20]; BALB/c mice, po 5 mg/kg (Table 4)): 3.3 nm | Free Cav^0–24h ([20]; BALB/c mice, po, AUC^inf/24*fub): 3.3 nM | CLu ([20]; BALB/c mice, CLtb/fub): 830 mL/min/kg | Vdu ([20]; BALB/c mice, Vss/fub): 160 L/kg | Vd ([20]; female, BALB/c, mouse, in vivo, iv): 1.9 L/kg | half-life at 24 h ([20]; female, BALB/c, mouse, in vivo, iv, 5 mg/kg): 240 min | Tmax ([20]; female, BALB/c, mouse, in vivo, po, 5 mg/kg): 2 h | AUC ([20]; female, BALB/c, mouse, in vivo, po, 5 mg/kg, AUCu^0–t, BALB/c mice): 0.072 µM·h | AUC ([20]; female, BALB/c, mouse, in vivo, po, 5 mg/kg, po AUC^0–t, BALB/c mice): 6 µM·h | iv Cltb ([21]; SD rats, iv): 24 mL/min/kg | Free Cav^0–24h ([21]; SD rats, po 5 mg/kg (Table 4)): 3.7 nm | Free Cav^0–24h ([21]; SD rats, po (Table S12)): 3.7 nM | CLu ([21]; SD rats, CLtb/fub): 730 mL/min/kg | Vdu ([21]; SD rats, Vss/fub): 220 L/kg | Vd ([21]; female, Sprague-Dawley (CD), rat, in vivo, iv): 7.3 L/kg | Cmax ([21]; female, Sprague-Dawley (CD), rat, in vivo, po, 5 mg/kg): 240 nM | half-life at 24 h ([21]; female, Sprague-Dawley, rat, in vivo, iv, 1 mg/kg): 186 min | Tmax ([21]; female, Sprague-Dawley, rat, in vivo, po, 5 mg/kg): 6 h | AUC ([21]; female, Sprague-Dawley, rat, in vivo, po, 5 mg/kg, AUCu^0–t, SD rats): 0.086 µM·h | AUC ([21]; female, Sprague-Dawley, rat, in vivo, po, 5 mg/kg, po AUC^0–t, SD rats): 2.6 µM·h | fub ([22]; athymic mouse blood, fub = fup/B:P): 0.0070 | Plasma, fup ([22]; athymic mouse, 90% CI): 0.037 (0.044-0.031) | fub ([23]; Sprague Dawley rat blood, fub = fup/B:P): 0.033 | Plasma, fup ([23]; Sprague Dawley rat, 90% CI): 0.034 (0.041-0.029)
